# Results as given in publication PMC4336329 (PLoS ONE, 2015).
# The campaign covered roughly 310,000 compounds. About 2,200 (0.71%) showed an effect of 50% or more. Effects have a minus sign here. Some of the results follow.
# Target: human ether-à-go-go-related gene (hERG) potassium channel (human, UniProt Q12809)
# Assay: primary screen, population patch clamp on CHO cells stably expressing hERG
# Sequence of human ether-à-go-go-related gene (hERG) potassium channel (Q12809 whole entry, looked up): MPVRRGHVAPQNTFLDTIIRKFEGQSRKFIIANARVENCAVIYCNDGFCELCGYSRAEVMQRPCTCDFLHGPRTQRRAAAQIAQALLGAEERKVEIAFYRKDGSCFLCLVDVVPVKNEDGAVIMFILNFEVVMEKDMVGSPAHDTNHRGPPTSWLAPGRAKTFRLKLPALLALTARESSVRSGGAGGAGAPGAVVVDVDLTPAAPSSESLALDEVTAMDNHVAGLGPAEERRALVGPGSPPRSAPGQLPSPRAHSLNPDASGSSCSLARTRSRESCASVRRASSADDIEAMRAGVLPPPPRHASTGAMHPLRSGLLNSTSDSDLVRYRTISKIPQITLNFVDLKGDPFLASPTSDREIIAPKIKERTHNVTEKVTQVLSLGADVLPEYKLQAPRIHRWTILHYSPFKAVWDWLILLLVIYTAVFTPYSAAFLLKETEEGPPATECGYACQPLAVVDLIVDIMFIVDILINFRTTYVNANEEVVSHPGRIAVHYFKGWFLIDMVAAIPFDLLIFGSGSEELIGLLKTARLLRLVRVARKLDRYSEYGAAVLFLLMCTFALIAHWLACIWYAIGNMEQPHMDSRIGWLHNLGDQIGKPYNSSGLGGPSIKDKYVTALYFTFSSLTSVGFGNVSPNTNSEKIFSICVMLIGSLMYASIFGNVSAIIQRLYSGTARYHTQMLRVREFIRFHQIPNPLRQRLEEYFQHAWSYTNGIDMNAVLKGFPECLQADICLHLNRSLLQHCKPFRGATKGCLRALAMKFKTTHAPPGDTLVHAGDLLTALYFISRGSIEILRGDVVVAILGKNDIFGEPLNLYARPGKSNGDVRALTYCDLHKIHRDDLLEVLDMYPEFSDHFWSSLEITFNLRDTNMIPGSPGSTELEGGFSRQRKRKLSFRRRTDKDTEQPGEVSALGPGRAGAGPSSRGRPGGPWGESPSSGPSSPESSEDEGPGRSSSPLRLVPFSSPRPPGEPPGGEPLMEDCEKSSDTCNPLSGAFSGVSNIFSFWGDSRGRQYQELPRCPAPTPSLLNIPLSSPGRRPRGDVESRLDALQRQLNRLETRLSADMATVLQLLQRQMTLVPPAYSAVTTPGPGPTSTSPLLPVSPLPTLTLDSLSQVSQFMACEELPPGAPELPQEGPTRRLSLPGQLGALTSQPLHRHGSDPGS
row,SMILES,"hERG current change (%, negative = inhibition) at 1uM [%]"
1,CN(CC(=O)Nc1cccc(F)c1)C(=O)Cn1c(=O)cnc2ccccc21,10.7
2,COC(=O)c1c(C)n(-c2ccccc2)c2ccc(O)cc12,-2.76
3,COc1ccccc1C(=O)N/C(=C\c1cn(S(=O)(=O)N(C)C)c2ccccc12)C(=O)N1CCOCC1,16.6
4,Cc1onc(-c2c(F)cccc2Cl)c1C(=O)OCC(=O)NCc1ccccc1,5.72
5,N/C(Cc1ccc([N+](=O)[O-])cc1)=N\OC(=O)COc1ccc2ccccc2c1,9.59
6,OC(CNc1ncnc2sccc12)c1ccccc1 (centres unmarked),8.3
7,CN(c1ccc(Cl)cc1)S(=O)(=O)c1nnc(NC(=O)c2ccco2)s1,13.4
8,CCCCC1CCC(C(=O)NCC(c2ccco2)N2CCOCC2)CC1 (centres unmarked),12.8
9,O=c1cc(N2CCOCC2)[nH]c(=O)n1Cc1ccc(F)cc1,19.6
10,CCC(CC)COC(=O)C1=C(C)NC(=O)NC1c1cccc([N+](=O)[O-])c1 (centres unmarked),13.5
11,CCOC(=O)C1=C(C)Nc2ncnn2C1c1cc(OC)ccc1OC (centres unmarked),10.3
12,C=CCn1c(SCn2nnc3ccccc3c2=O)nc2scc(-c3cccs3)c2c1=O,5.88
13,O=C(NCc1ccccc1Cl)c1cc(C(=O)C2CC2)c[nH]1,14.5
14,O=C(Nc1ccc(C(=O)NC2CCCCC2)cc1)c1cncc(Br)c1,0.0087
15,CCc1c(C)nc(SC(C(=O)O)c2ccccc2)c(C#N)c1C (centres unmarked),5.6
16,CC1CCc2c(sc3nc(SCC(=O)NCc4ccco4)nc(N)c23)C1 (centres unmarked),2.95
17,CC(=O)N1c2ccc(S(=O)(=O)NCCC(=O)NCCc3cccc(C)c3)cc2CC1C (centres unmarked),20.9
18,CCc1sc(N(C(=O)Cc2ccccc2)c2ccccc2)nc1-c1ccccc1,10.8
19,O=C(OCCCc1cc2ccccc2c(=O)o1)c1ccc(C(F)(F)F)cc1,7.12
20,COc1ccc(C(=O)C2CCCN(C(=O)/C=C/c3ccccn3)C2)c(C)c1 (centres unmarked),5.84
21,COc1ccc(Br)cc1CN(C)CC(=O)NCCc1ccc(S(N)(=O)=O)cc1,6.73
22,CC1CC(C)CN(C(=O)c2cccc3c2-c2ccccc2C3=O)C1 (centres unmarked),8.39

row,SMILES,"hERG current change (%, negative = inhibition) at 1uM [%]"
1,C=C(C)Cn1c(=O)c(NC(=O)c2ccccc2)c2n(c1=S)CCC2,3.55
2,CCCC(=O)c1ccc(N2CCCCCC2)c(F)c1,-0.404
3,CCN(C(=O)COc1cc(=O)n(CC)c2ccccc12)c1cccc(Cl)c1,-6.04
4,Cc1nc(SCC(=O)c2cccc([N+](=O)[O-])c2)n[nH]1,12.9
5,O=C(O)c1cccc(Nc2c3ccccc3nc3ccccc23)c1,15.9
6,Cc1ccc(Cl)cc1NC(=O)CC1NCCNC1=O (centres unmarked),3.11
7,COc1cc(C(CCN2CCOCC2)c2c(OC)cc(OC)c3c2OC(=O)CC3c2ccc(N(C)C)cc2)cc(OC)c1OC (centres unmarked),6.92
8,CCC(=O)N1CCN(c2ccc(NC(=O)COc3cccc(C)c3C)cc2)CC1,-2.72
9,CCN(C(=O)COC(=O)COc1ccc2c(C)cc(=O)oc2c1)C1CCS(=O)(=O)C1 (centres unmarked),4.83
10,Cc1cc(C)c2c(c1)-c1c(ssc1=S)C(C)(C)N2C(=O)CN1C(=O)c2ccccc2C1=O,-2.88
11,O=C(Nc1cccc(C(=O)N2CCOCC2)c1)c1ccccc1Cl,-4.58
12,N#Cc1c(NCCCO)nc(NCc2ccccc2)c2c1CCN(Cc1ccccc1)C2,-11.8
13,COc1ccc(-c2cn3cccnc3n2)cc1Br,9.34
14,CC1CC(C)CN(S(=O)(=O)c2cc(C(=O)O)c(Cl)s2)C1 (centres unmarked),-6.21
15,CCn1cc(C(=O)N[C@H](C(=O)NCCCOC)C(C)C)c(=O)c2cc3c(cc21)OCO3,9.14
16,CCOc1ccc(NCc2nnc(SCC(=O)Nc3nc(-c4ccccc4)cs3)n2-c2ccccc2)cc1,4.76
17,COc1ccc(C2NC(=O)NC3=C2C(=O)CCC3)cc1 (centres unmarked),13.5
18,CC(C)c1ccc(OCC(=O)Nc2ccc3oc(=O)ccc3c2)cc1,14.9
19,O=C(CSc1ccc([N+](=O)[O-])cn1)Nc1ccc2c(c1)OCCO2,11.1
20,CN(C(=O)COC(=O)c1cc(S(=O)(=O)N2CCCCC2)ccc1Cl)c1ccccc1,0.742
21,O=C(NCCCn1ccnc1)c1cc2c(s1)CCCC2,7.42
22,CCOC(=O)c1ccc(NC(=S)N2CCCC(C(=O)N3CCCC3)C2)cc1 (centres unmarked),10.8

row,SMILES,"hERG current change (%, negative = inhibition) at 1uM [%]"
1,CCOc1ccc(OCC(=O)Nc2ccc(S(=O)(=O)Nc3cc(C)nc(C)n3)cc2)cc1,18.3
2,Cc1cc(C)c2nc(NC(=O)C3CSC4(C)CCC(=O)N34)sc2c1 (centres unmarked),20.8
3,CC(C)(C)c1ccc(-c2n[nH]c(=S)n2CCCN2CCOCC2)cc1,21.2
4,COc1ccc2[nH]c(=O)c(CN(Cc3cccnc3)S(=O)(=O)c3ccccc3F)cc2c1,7.89
5,c1ccc(-n2c(-c3ccncc3)nnc2N2CCOCC2)cc1,11.6
6,O=C(CSc1ccccc1C(=O)O)NC1CCCCCCC1,14.9
7,O=C(N/N=C/c1cc(Br)c(O)c(Br)c1O)c1cccnc1,4.28
8,Cc1nn(CC(=O)N2CCC(C)CC2)c(=O)c2nn(-c3ccccc3)c(C)c12,16.3
9,CSC1=N/C(=C\c2ccc(Cl)cc2)C(=O)N1N(C)C,13.6
10,CCOC(=O)C1(CCOc2ccccc2)CCN(Cc2ccc(CO)o2)CC1,-33.7
11,Cc1c(CN(C)C)c2c(n1C)C(=O)c1ccc(Br)cc1-2.Cl,-2.4
12,O=[N+]([O-])c1cc(O)c(O)c([N+](=O)[O-])c1,9.9
13,Cc1nn(CC(=O)NCC2CCCO2)c(=O)c2cc3ccccc3n12 (centres unmarked),8.41
14,CC1CCCCC1NC(=O)CNC(=O)c1cccs1 (centres unmarked),8.4
15,CCOC(=S)SCC(=O)N1CCc2ccccc2C1C1C(=O)CC(C)(C)CC1=O (centres unmarked),9.52
16,CCC(Cc1ccccc1)NCc1c(C(=O)O)c(C)n(Cc2ccccc2)c1C (centres unmarked),14.6
17,O=C(O)C1CCN(C(=O)CSc2nc3cc(Cl)ccc3c(=O)n2Cc2ccccc2)CC1,8.17
18,O=C(CSc1ccccn1)Nc1ccc2c(c1)CCC2,10.7
19,O=C(N/N=C\c1ccc(O)c([N+](=O)[O-])c1)C1COc2ccccc2O1 (centres unmarked),2
20,COC(=O)CN1C(=S)N(c2ccc(OC)cc2)C(=O)/C1=C/c1ccc(OC)cc1,16.9
21,Cc1occc1C(=O)Nc1c(Cl)cccc1Cl,2.45
22,Cc1ccc(-n2[nH]c(C)c(C=Nc3ccc(S(=O)(=O)Nc4nccs4)cc3)c2=O)c(C)c1,-0.109

row,SMILES,"hERG current change (%, negative = inhibition) at 1uM [%]"
1,CCOC(=O)C1CCN(/C=C2/C(=O)NC(=S)N(c3ccccc3F)C2=O)CC1,9.16
2,CC(C)(C)C(=O)NC1CCN(CC(=O)Nc2ccc3c(c2)OCO3)CC1,21.2
3,Fc1ccc(NCc2nnc(SCc3nnc(-c4ccccc4)o3)n2Cc2ccccc2)cc1,-3.89
4,CCN(CC(=O)Nc1cc(C)nn1-c1nc(C)cc(C)n1)Cc1ccccc1,-3.97
5,COc1ccc(-c2cc(C(=O)N/N=C(\C)c3ccco3)c3ccccc3n2)c(OC)c1,13.7
6,CCCCC(=O)Nc1ccc(C(=O)Nc2ccc(S(=O)(=O)Nc3ccc(C)cc3)cc2)cc1,10.5
7,O=C(COc1ccccc1)Nc1cccc(-c2nc3cc4ccccc4cc3[nH]2)c1,-5.61
8,COc1ccc(C(=O)N/N=C/C23CC[C@@H](O)CC2(O)CC[C@@H]2[C@@H]3CCC3(C)C(C4=CC(=O)OC4)CCC23O)cc1 (some centres unmarked),12.9
9,CCOc1ccc(/C=N/NC(=O)C2CC2)c(OCC)c1,8.23
10,CC(C)CCNC(=O)COC(=O)c1cc(Br)c(Br)s1,10.1
11,CCn1cc(C(=O)Nc2sc(C)c(C)c2C(=O)OC)cn1,7.11
12,COc1ccc(CCN(C)C(=O)C2CCCN(Cc3ccc(OC)c(OC)c3)C2)cc1OC.O=C(O)C(=O)O (centres unmarked),6.13
13,O=C(c1c(F)cccc1F)N1CCCC(c2nc(-c3cccs3)no2)C1 (centres unmarked),7.95
14,CCCCCCC(=O)N/N=C(\C)Cc1ccccc1,17.8
15,O=C(CN1CCN(c2cccc(Cl)c2)CC1)N1CCCC1,12.5
16,NC(=O)COc1c(-c2ccccc2)oc2ccccc2c1=O,-0.934
17,Cc1occc1C(=O)NNC(=O)c1cccc(F)c1,16.3
18,N#Cc1cc[n+](CC(=O)c2ccc(NC(=O)c3ccccc3)cc2)cc1.[Br-],-5.22
19,CN(C)c1nc(-c2ccccc2)c2cc(Cl)ccc2n1,10.4
20,CN(C)N1C(N)=C(C#N)C(c2ccc(Br)cc2)C2=C1CCCC2=O (centres unmarked),-15.7
